Results are given in words; binding and its absence hold for the method and conditions named. Binding seen in cells or lysates may run through a third protein. Some binding calls cover weakened binding; strength is not graded here. Tags and fused reporters may be left off the sequences shown.
Tests used:
[1] = biological target: T1, Tof1, codon-optimised wildtype, C terminally TAP tagged (S. cerevisiae) (UniProt P53840); experiment: co-IP; TAP-tagged Tof1 proteins captured on IgG Sepharose from cleared lysates of exponentially growing yeast; 2 h, 4°C; lysis buffer 50 mM HEPES pH 7.5, 300 mM KCl, 5 mM EDTA, 10 mM MgOAc, 10% glycerol, 0.01% Triton X-100; eluted in 0.2 M glycine pH 3.0; western blot with anti-Csm3
T1 sequence: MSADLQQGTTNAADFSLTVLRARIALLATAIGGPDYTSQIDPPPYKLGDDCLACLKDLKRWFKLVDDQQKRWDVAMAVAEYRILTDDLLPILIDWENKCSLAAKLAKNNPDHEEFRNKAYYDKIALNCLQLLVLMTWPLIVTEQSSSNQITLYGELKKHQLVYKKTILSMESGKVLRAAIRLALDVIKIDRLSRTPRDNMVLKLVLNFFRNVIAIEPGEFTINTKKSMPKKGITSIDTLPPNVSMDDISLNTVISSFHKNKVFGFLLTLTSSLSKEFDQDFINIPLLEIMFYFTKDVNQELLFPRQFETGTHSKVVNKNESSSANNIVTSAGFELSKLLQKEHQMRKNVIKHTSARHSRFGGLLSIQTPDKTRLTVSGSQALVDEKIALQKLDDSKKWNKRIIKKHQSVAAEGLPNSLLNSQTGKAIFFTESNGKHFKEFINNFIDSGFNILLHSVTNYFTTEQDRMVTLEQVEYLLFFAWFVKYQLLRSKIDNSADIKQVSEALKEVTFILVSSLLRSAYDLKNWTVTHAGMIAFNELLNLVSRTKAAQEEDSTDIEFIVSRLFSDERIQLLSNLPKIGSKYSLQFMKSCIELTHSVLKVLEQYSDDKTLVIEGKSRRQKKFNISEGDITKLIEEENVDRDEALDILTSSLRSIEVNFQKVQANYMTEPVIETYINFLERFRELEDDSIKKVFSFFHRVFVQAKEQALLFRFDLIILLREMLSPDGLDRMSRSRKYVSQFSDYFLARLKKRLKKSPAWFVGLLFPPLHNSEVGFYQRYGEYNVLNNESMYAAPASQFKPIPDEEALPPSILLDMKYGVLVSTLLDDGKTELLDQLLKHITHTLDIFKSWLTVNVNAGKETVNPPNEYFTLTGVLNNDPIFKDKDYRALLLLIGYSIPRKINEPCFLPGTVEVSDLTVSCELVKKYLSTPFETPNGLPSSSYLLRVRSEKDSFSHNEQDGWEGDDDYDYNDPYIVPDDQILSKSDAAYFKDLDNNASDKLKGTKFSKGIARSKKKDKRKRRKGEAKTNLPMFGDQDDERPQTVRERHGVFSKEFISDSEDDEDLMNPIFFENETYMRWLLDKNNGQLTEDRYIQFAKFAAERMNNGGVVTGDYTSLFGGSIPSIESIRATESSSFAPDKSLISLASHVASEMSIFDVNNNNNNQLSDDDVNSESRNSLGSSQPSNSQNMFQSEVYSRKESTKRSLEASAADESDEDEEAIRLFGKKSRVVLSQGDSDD

[2] = biological target: T2, tof1 830 truncation protein, C terminally TAP tagged (S. cerevisiae) (UniProt P53840); experiment: as above
T2 sequence: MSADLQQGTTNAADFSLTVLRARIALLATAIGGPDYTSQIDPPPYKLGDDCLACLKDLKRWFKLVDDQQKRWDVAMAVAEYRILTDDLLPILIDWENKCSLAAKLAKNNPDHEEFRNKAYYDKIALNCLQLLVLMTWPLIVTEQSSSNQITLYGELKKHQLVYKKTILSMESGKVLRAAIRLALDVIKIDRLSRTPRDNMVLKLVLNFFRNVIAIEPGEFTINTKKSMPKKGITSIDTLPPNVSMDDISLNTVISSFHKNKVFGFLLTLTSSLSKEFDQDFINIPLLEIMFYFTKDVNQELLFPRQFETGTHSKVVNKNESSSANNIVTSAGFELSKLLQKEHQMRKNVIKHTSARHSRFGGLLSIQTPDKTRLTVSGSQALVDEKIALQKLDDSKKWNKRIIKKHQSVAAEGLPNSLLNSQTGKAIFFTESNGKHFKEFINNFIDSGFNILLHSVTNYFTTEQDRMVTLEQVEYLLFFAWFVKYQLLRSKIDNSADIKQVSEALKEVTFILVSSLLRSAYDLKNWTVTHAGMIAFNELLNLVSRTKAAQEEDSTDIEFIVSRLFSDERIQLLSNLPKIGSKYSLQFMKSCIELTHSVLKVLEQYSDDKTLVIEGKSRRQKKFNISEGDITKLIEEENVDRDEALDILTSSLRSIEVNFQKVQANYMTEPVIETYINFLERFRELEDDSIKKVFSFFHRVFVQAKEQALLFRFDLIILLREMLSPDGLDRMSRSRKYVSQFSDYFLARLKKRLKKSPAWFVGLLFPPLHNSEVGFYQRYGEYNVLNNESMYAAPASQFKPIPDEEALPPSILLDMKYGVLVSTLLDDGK

B1: Csm3 (protein, UniProt Q04659 1-317)
chain: MDQDFDSLLLGFNDSDSVQKDPTVPNGLDGSVVDPTIADPTAITARKRRPQVKLTAEKLLSDKGLPYVLKNAHKRIRISSKKNSYDNLSNIIQFYQLWAHELFPKAKFKDFMKICQTVGKTDPVLREYRVSLFRDEMGMSFDVGTRETGQDLERQSPMVEEHVTSAEERPIVADSFAQDKRNVNNVDYDNDEDDDIYHLSYRNRRGRVLDERGNNETVLNNVVPPKEDLDALLKTFRVQGPVGLEENEKKLLLGWLDAHRKMEKGSMTEEDVQLIQSLEEWEMNDIEGQHTHYDLLPGGDEFGVDQDELDAMKEMGF
- binding [1]: binds
- binding [2]: binds
